PubChem BioAssay AID1468 (National Center for Advancing Translational Sciences (NCATS), 2008)
Where “and” joins values, the source holds several entries; their conditions need not be identical. Equal values may be shown once. Screen size: about 280,000 compounds; about 1,100 (0.39%) were called active. Inconclusive results, whose numbers are uncertain, are shown with a selection of clear calls. Calls come from the whole dose curve; as a rule, active = well fitted inhibition curve with a large enough effect; inconclusive = small, poorly fitted or top-dose-only effect, or effect the other way; inactive = flat fitted curve, though single readings scatter. Where the call is inconclusive, the potency comes from a doubtful curve fit.

These molecules were tested against Microtubule-associated protein tau (Homo sapiens) (UniProt P10636) (assay: qHTS for Inhibitors of Tau Fibril Formation, Fluorescence Polarization). Conditions: K18 P301L tau heparin fibrillization, Alexa594 FP, 6 h; series mostly up to 57.7 µM.
Sequence of UniProt P10636 (P10636 whole entry, looked up): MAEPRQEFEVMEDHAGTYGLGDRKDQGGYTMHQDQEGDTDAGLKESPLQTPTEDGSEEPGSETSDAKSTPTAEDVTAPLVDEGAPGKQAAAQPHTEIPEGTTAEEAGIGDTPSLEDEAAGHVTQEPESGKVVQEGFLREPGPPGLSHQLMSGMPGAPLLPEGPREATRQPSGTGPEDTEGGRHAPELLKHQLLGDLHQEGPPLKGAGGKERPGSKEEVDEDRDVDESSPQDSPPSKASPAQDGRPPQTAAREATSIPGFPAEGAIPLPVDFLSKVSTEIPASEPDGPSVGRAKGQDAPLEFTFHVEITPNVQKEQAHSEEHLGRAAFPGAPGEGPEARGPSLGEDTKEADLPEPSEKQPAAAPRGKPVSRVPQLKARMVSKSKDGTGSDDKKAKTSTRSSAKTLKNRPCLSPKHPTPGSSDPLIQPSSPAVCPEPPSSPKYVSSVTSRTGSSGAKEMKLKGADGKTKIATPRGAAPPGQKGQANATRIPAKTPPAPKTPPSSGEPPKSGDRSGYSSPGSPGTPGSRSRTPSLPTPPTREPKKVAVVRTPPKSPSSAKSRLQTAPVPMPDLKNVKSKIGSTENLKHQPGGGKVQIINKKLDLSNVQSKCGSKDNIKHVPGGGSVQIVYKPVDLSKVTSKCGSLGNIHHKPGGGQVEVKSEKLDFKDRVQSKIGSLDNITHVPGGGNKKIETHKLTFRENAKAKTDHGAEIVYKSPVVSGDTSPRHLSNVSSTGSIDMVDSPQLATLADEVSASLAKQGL
In short: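 Quantitative HTS format: compounds meet 15 uM recombinant K18 P301L tau and Alexa 594-tau tracer in 100 mM sodium acetate pH 7; 20 uM heparin triggers fibrillization at 37 C over 6 hr; FP gives the signal.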
Note: nearly all actives have a fitted effect of over 55% in size.
Potency is the fitted concentration of half-maximal effect; tags give direction and shape of the fitted curve.

Potency, inactive:
Cc1ccc([N+](=O)[O-])cc1S(=O)(=O)N1CCn2cccc2C1c1ccccc1F (stereo unspecified)
CN(Cc1ccc(F)cc1)S(=O)(=O)c1nnc(NC(=O)c2ccccc2Br)s1
CCOC(=O)c1cnc2cc(C(F)(F)F)ccc2c1N1CCN(c2cccc(Cl)c2)CC1
Cc1ccc(F)cc1NC(=O)CCc1c(C)nn(-c2ccc(N3CCCC3)nn2)c1C
CCCSc1nnc(CSc2nc(C)cc(C)n2)n1C
CCCc1cc(=O)[nH]c2nnc(SCC(=O)Nc3ccc(OC)cc3)n12
Cc1ccc(-c2n[nH]c3c2C(c2cccc(O)c2)N(c2ccc(C(=O)O)cc2)C3=O)cc1 (stereo unspecified)
COC(=O)c1c(NC(=O)CCCC(=O)O)sc(C)c1C
Cn1cccc1/C=N/NC(=O)c1cccnc1
O=C(Nc1cccc(-c2csc(Nc3ccccc3)n2)c1)c1ccccc1
CCOc1ccc(N(CC)S(=O)(=O)N2CCCC(C(=O)Nc3cc(Cl)ccc3C)C2)cc1 (stereo unspecified)
COc1ccc(NC(=O)Nc2nc3c(s2)CCCC3)cc1
Cc1ccc(CSCCNC(=O)/C=C/c2ccccc2Cl)cc1
Cc1cc(C)nc(NS(=O)(=O)c2ccc(NC(=O)c3ccc(N4C(=O)CCC4=O)cc3)cc2)n1
Cn1cc(S(=O)(=O)c2cccc(Cl)c2)c(=O)c2cc(F)c(N3CCN(c4ccc(F)cc4)CC3)cc21

Potency, inconclusive:
Cc1ccc2c(c1)c(=O)c1c3n2CCN(C(=O)CCl)C3CC1 (stereo unspecified) 25.1 µM [inhibitor, partial curve]
O=C(NCc1cccn1Cc1ccccc1)Nc1cccc(C(F)(F)F)c1 22.4 µM [inhibitor, partial curve]
COc1ccc(NC(=O)c2cc(F)c(F)cc2Cl)cc1Cl 44.7 µM [inhibitor, single point]
S=C(NNc1ccnc2cc(Cl)ccc12)Nc1ccc(Cl)cc1Cl 39.8 µM [inhibitor, single point]
Cc1ccc(NC(=O)CSc2nc3ccc(NC(=O)c4cccs4)cc3s2)cc1 3.16 µM [inhibitor, full curve]
CCOc1cc(CNC(=O)c2ccc(Cn3c(=O)c4cccn4c4cccnc43)cc2)ccc1OC 12.6 µM [inhibitor, partial curve]
CCOc1ccccc1C(=O)Nc1ccc(S(=O)(=O)Nc2onc(C)c2C)cc1 39.8 µM [inhibitor, single point]
CCOC(=O)c1c(SCC(=O)Nc2nc3ccccc3s2)nc(=O)[nH]c1C 44.7 µM [inhibitor, single point]
Cc1ccc(S(=O)(=O)c2nnn3c2nc(NC(C)c2ccccc2)c2sccc23)cc1 (stereo unspecified) 3.55 µM [inhibitor, full curve, poor fit]
O=c1c(C(c2ccc(Cl)cc2)c2c(O)nc3n(c2=O)CCS3)c(O)nc2n1CCS2 3.98 µM [inhibitor, partial curve]
O=C(Nc1ccc(Cl)cc1)Nc1nc(-c2ccccc2O)cs1 5.62 µM [inhibitor, full curve, poor fit]
CCOC(=O)c1[nH]c2cc(OC)c(OC)cc2c1NC(=O)CN(C)C1CCCCC1 44.7 µM [activator, single point]
S=C(c1ccc(N2CCCC2)c(Br)c1)N1CCCCC1 44.7 µM [activator, single point]
O=C(CCCn1c(=O)c2ccccc2n(CC(=O)Nc2cccc(C(F)(F)F)c2)c1=O)NCc1ccc2c(c1)OCO2 31.6 µM [inhibitor, partial curve, poor fit]
O=S(=O)(c1ccc(NC2CCCc3ccccc32)nc1)N1CCOCC1 (stereo unspecified) 0.0251 µM [inhibitor, full curve, poor fit]
O=C1C=C(NC(=O)Nc2ccc(Cl)c(Cl)c2)CCC1 31.6 µM [inhibitor, single point]
COc1ccc2c(c1)c(C(=O)N/N=C/c1ccc(Br)cc1)c(C)n2C 39.8 µM [activator, single point]
O=C(CNc1ccccc1OC(F)F)N1CCc2ccccc21 2.82 µM [inhibitor, single point]
O=C(c1noc2c1CCCCC2)N1CCN(c2cccc(C(F)(F)F)c2)CC1 8.91 µM [activator, single point]
Cc1ccc(C(=O)Nc2ccc(S(=O)(=O)O)c3cc(S(=O)(=O)O)cc(S(=O)(=O)O)c23)cc1NC(=O)c1cccc(NC(=O)Nc2cccc(C(=O)Nc3cc(C(=O)Nc4ccc(S(=O)(=O)O)c5cc(S(=O)(=O)O)cc(S(=O)(=O)O)c45)ccc3C)c2)c1 3.98 µM [inhibitor, full curve] and 12.6 µM [inhibitor, partial curve] and 25.1 µM [inhibitor, partial curve]
O=[N+]([O-])C(=C1Nc2ccccc2N1)C(Cl)=C(Cl)Cl 7.08 µM [inhibitor, partial curve, poor fit]
Cn1c(SCC(=O)N/N=C/C=C/c2ccco2)nc2ccccc21 39.8 µM [inhibitor, single point]
O=C(NCC1CCCO1)c1coc2nc3ccccc3nc12 (stereo unspecified) 28.2 µM [inhibitor, single point]
O=C(CNC(=S)NC(=O)c1cccs1)c1ccccc1 0.501 µM [inhibitor, single point]
Cc1ccc(-c2noc(CNS(=O)(=O)c3ccc(F)cc3)n2)cc1 39.8 µM [inhibitor, single point]
CCN1CC(=O)Nc2cc(S(=O)(=O)N3CCOCC3)ccc21 0.126 µM [activator, full curve, poor fit]
